Laboratory results from publication PMC4336329 (PLoS ONE, 2015).
In all, about 310,000 compounds went through this assay and about 2,200 (0.71%) showed an effect of 50% or more. The effect is printed as a negative number. Some of the results follow.

Target: human ether-à-go-go-related gene (hERG) potassium channel (human, UniProt Q12809)
Assay: primary screen, population patch clamp on CHO cells stably expressing hERG

Sequence of human ether-à-go-go-related gene (hERG) potassium channel (Q12809 whole entry, looked up): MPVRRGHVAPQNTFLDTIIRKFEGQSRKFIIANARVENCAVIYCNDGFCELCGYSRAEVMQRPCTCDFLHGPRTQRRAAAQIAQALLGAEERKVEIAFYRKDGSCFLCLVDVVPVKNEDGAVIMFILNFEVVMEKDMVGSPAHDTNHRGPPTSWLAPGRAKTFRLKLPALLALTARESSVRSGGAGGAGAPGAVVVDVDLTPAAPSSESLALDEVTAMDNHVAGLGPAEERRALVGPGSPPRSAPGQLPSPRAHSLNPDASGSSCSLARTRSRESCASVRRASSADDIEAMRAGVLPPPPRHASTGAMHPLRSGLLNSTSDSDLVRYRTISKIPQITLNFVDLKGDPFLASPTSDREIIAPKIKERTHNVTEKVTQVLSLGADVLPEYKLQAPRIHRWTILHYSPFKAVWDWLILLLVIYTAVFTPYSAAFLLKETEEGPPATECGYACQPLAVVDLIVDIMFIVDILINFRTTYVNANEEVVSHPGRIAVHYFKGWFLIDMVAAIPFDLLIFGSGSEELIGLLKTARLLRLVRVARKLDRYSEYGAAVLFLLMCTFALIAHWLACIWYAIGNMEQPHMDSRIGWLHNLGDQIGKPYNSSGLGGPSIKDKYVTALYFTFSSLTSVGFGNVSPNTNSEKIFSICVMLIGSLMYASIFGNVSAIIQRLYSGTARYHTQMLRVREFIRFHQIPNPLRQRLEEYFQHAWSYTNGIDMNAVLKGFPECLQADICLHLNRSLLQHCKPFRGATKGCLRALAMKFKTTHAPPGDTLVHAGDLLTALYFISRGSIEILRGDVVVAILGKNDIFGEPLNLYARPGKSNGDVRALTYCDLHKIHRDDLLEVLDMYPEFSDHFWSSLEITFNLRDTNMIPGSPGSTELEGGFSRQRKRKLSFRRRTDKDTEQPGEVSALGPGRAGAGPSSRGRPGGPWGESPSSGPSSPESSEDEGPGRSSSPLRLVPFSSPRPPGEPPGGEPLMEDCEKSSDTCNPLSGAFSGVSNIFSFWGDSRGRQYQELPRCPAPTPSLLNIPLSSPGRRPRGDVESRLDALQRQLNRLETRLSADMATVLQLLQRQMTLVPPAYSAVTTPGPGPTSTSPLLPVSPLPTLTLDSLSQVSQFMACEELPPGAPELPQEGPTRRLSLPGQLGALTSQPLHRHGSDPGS

Structure (SMILES)	hERG current change (%, negative = inhibition) at 1uM [%]
Cc1ccc(C)c(C(=O)CN2C(=O)NC3(CCCCCCC3)C2=O)c1	4.49
CCOc1ccccc1NC(=O)c1cnc2n(c1=O)CCS2	8.49
O=C(NC1CCCc2ccccc21)c1ccc(F)cc1F (stereo not shown)	-1.31
COCc1ccc(C(=O)NC(C)c2cnn(-c3ccccc3C)c2C)o1 (stereo not shown)	6.94
Cc1ccc(S(=O)(=O)N(Cc2cc3cc4c(cc3[nH]c2=O)OCCO4)CC2CCCO2)cc1 (stereo not shown)	13.2
Cc1cc(C)cc(N(C(=O)c2csnn2)C(C(=O)NC(C)(C)C)c2cccs2)c1 (stereo not shown)	6.52
Cc1cc(=O)[nH]c(N=N/C(=N/Nc2ccc(O)cc2)c2ccccc2)n1	4.07
O=C(NCCOc1ccccc1)c1ncn[nH]1	12
COc1ccc(S(=O)(=O)N2CCC(Nc3ccccc3Cl)CC2)cc1	28.1
COC(=O)c1ccccc1NC(=O)NC1CCN(Cc2ccccc2)CC1	-0.747
CC(Oc1ccccc1)C(=O)OCC(=O)NC(=O)NCc1ccco1 (stereo not shown)	12.6
O=c1[nH]c(CSc2nc3ccccc3s2)nc2cc(Cl)ccc12	9.81
C=CCOC(=O)Nc1ccc(Cl)cc1NC(=O)OCC=C	0.411
O=C(Nc1cccc(-c2nnn(CC(=O)N3CCc4ccccc4C3)n2)c1)C1CCC1	17.8
Cc1cc(N2CCN(Cc3cn(C)nc3-c3ccccc3F)CC2)cc(C)n1	-3.99
CC1C(C#N)=C(N)OC2=C1C(=O)CCC2 (stereo not shown)	1.67
CCC(=O)Oc1ccc2c(=O)c(-c3ccc4ccccc4n3)c(CC)oc2c1C	19.8
COc1ccccc1OCCn1cc(/C=N/NC(=O)c2ccncc2)c2ccccc21	16.5
Cc1ccnn1CCC(=O)O	12.4
CCSc1nc2ccc(N3C(=O)C4C5C=CC(C5)C4C3=O)cc2s1 (stereo not shown)	8.84
O=C(NCCN1C(=O)S/C(=C\c2ccccc2)C1=O)C1CCN(S(=O)(=O)c2cccs2)CC1	-6.33
CC(Oc1ccc(Br)cc1)C(=O)NNC(=O)CCN1CCN(c2ccccc2)CC1 (stereo not shown)	-1.74

Structure (SMILES)	hERG current change (%, negative = inhibition) at 1uM [%]
O=C(OCc1ccccc1)C1=[N+]([O-])OC(C(=O)OCc2ccccc2)C1c1c[nH]c2ccccc12 (stereo not shown)	8.17
CC(=O)Nc1ccc(NC(=O)COC(=O)c2cc([N+](=O)[O-])ccc2N2CCOCC2)cc1	-3.31
Cc1ccc(NC(=O)c2ccc(C(C)(C)C)cc2)cc1-n1cnnn1	8.91
O=C(Nc1ccccn1)c1cc2ccccc2o1	9.79
CCN(CC)c1ccc(Nc2nc(Cl)ncc2Br)cc1	7.87
CCC(=O)Nc1ccc2nc(C)n(CC(=O)Nc3ccccc3)c(=O)c2c1	10.1
O=c1[nH]cnc2nc3n(c12)CCCCC3	6.06
COC(=O)c1oc2ccccc2c1-n1cccc1	0.781
Cc1ccc(CNC(=O)c2sccc2-n2cccc2)cc1	3.94
Cc1noc(C)c1S(=O)(=O)N1CCCC(C(=O)Nc2nccs2)C1 (stereo not shown)	8.45
Cc1ccc(-n2nnnc2-c2ccccc2Br)cc1	1.12
CC1CCCCC1NC(=O)COC(=O)c1ccc2c(c1Cl)C(=O)c1ccccc1C2=O (stereo not shown)	6.56
CN(C)c1nc(SCCOC(=O)Nc2ccccc2)nc(N(C)C)n1	9.47
Cc1cc(-c2nc3ccccc3c(=O)o2)ccc1[N+](=O)[O-]	13.5
Cc1ccccc1Nc1nc(N)nc(CSCC(=O)Nc2cccc(Br)c2)n1	11.8
O=C(CCc1nnc2ccc(N3CCC4(CC3)OCCO4)nn12)NCc1ccc(F)cc1	3.87
Cc1csc(NC(=O)CSc2nc(C(C)C)nc3c2c(=O)n(C)c(=O)n3C)n1	5.02
O=C(COc1cccnc1[N+](=O)[O-])NCCc1ccc(F)cc1	4.74
CCOc1ccc2c(c1)OC1(CCC(C)C1)CC2=O (stereo not shown)	10.6
CCOC(=O)c1cc2c(ccn2C)n1Cc1ccc(C#N)cc1	4.71
COC(=O)CN(c1ccc(OC)cc1OC)S(=O)(=O)c1ccccc1[N+](=O)[O-]	4.14
CC(=O)c1c(N2CCN(c3ccccn3)CC2)nc(=S)n(-c2ccccc2)c1C	-5.96

Structure (SMILES)	hERG current change (%, negative = inhibition) at 1uM [%]
O=C(Cn1cnc2sc3c(c2c1=O)CCCC3)NCC(=O)Nc1ccccc1F	13.1
COC(=O)c1sc(-c2ccccc2)cc1NC(=O)c1cc(OC)cc(OC)c1	18.5
Cc1ccc(S(=O)(=O)N2CCCCC2CCNC(=O)C(=O)NC2CCCC2)cc1 (stereo not shown)	-2.42
O=C(CCn1c(=S)[nH]c2ccccc2c1=O)N1CCCCC1	14.1
O=C(Cc1ncc(C(F)(F)F)cc1Cl)N1CCN(c2ccccn2)CC1	-1.62
O=C1C2C(C(=O)N1CCc1ccccc1)C1C=CC2C12CC2 (stereo not shown)	12.7
COc1cc(/C=N/NC(=O)C(Cc2c[nH]c3ccccc23)NC(=O)OCC(C)C)cc([N+](=O)[O-])c1OCc1ccccc1 (stereo not shown)	8.72
Cc1ccnc(NC(=O)CNC(=O)c2sc3ccccc3c2Cl)c1	10.1
O=c1oc2cc(OCc3c(F)cccc3Cl)ccc2cc1-c1ccccn1	5
COc1ccc(NC(=S)NC2CC3CCCC(C2)N3C2CC2)cc1 (stereo not shown)	-12.2
O=C(CCNC(=O)N1CC(=O)Nc2ccccc21)NCc1cccc(Cl)c1	13.8
Cc1nc(-c2ccccc2)sc1C(=O)O	7.52
Cc1cc(Cl)ccc1C(=O)C1CCCN(C(=O)c2snnc2C)C1 (stereo not shown)	-22.7
CC(c1ccccc1)n1c(-c2ccc(Cl)cc2)n[nH]c1=S (stereo not shown)	10.4
CCOC(=O)c1cc(OC(=O)c2ccccc2)n(-c2ccccc2)n1	-7.31
CCOC(=O)C(C)Sc1ncnc2c1c(-c1ccccc1)cn2-c1ccc(OC)cc1 (stereo not shown)	7.46
CCOC(=O)Nc1ccc2c(c1)N(C(=O)OCCN(C)C)c1ccccc1CC2	-16.6
CCOc1cc(/C=N/n2cnnc2)c(Br)cc1O	-6.9
COc1ccc(/C=C2\Sc3ccc(C(=O)N4CCc5ccccc5C4)cc3N(C)C2=O)cc1	5.21
CCOC(=O)CC(NC(=O)C1c2ccccc2Oc2ccccc21)c1ccccc1Cl (stereo not shown)	25.3
O=C(NCc1nnnn1-c1cccc(F)c1)c1ccc(S(=O)(=O)N2CCOCC2)cc1	10.1
CCOC(=O)C1=C(N)Oc2cc(O)ccc2C1c1ccc(F)cc1F (stereo not shown)	13

Structure (SMILES)	hERG current change (%, negative = inhibition) at 1uM [%]
Cc1nc(C)c(C(=O)NNS(=O)(=O)c2ccc3ccccc3c2)s1	9.1
O=C(Nc1ccc(O)cc1)/C(=C\C=C\c1ccccc1)NC(=O)c1ccccc1	5.49
CCOc1cc(/C=N/NC(N)=S)cc(Br)c1OCc1ccccc1C	15.3
O=C(CCC1CCCN(C(=O)c2cccnc2)C1)NCc1ccccc1F (stereo not shown)	2.53
C/C=C(\C)C(=O)Nc1cccc(C2=NOC3(C2)C[C@H](C(N)=O)N(C(=O)c2cc([N+](=O)[O-])cc([N+](=O)[O-])c2)C3)c1 (stereo partly shown)	6.85
CC1(C)CC(=O)C(C(=O)Cc2ccccc2[N+](=O)[O-])C(=O)C1	20.4
O=C(CC1NCCNC1=O)Nc1ccc(Cl)c(Cl)c1 (stereo not shown)	7.1
Nc1nc(C2CCCCC2)cs1	2.04
CCc1nnc(NC(=O)CSc2nnc(-c3ccccc3OC)n2-c2ccc(C)cc2)s1	7.53
Cc1ccccc1C(=O)Nc1nnc(S(=O)(=O)N2CCCCC2)s1	0.543
COCCCNCCOc1cc(C(C)C)ccc1C	11.1
Cc1nn(-c2ccc(N3CCCCC3)nn2)c(C)c1CCC(=O)Nc1ccccc1F	7.01
COC(c1ccccc1)c1nnc(CCC(=O)N(C)CCCC2CCCC2)o1 (stereo not shown)	0.616
Cc1onc(-c2c(F)cccc2Cl)c1C(=O)Nc1nnc(C2CC2)s1	7.17
COc1ccc(S(=O)(=O)N/N=C\c2ccc3c(c2)OCO3)c(OC)c1	12.7
COc1ccccc1CC(=O)Nc1cccc(S(=O)(=O)N2CCOCC2)c1	10.6
COC(=O)c1cc2c(C)c(C)c3ccccn3c-2c1C(=O)OC	12.9
O=C(Cn1nnc(-c2ccccc2)n1)N1CCCCC1	11.8
COc1cccc(C2=NOC(C(=O)NCc3ccc(F)cc3)C2)c1 (stereo not shown)	-9.95
CCOC(=O)COc1c(Cl)cc(C2NC(=S)NC(c3ccccc3)=C2C(C)=O)cc1OC (stereo not shown)	4.15
Fc1ccc(NC(=S)Nc2cccc3ccccc23)cc1F	10.4
Cc1ccc(C)c(-n2c(SCC(=O)NCC3CCCO3)nnc2-c2ccoc2C)c1 (stereo not shown)	6.11
